Hit rate of the full screen: of about 350,000 compounds, about 31,000 (8.9%) were called active. This list was built around the results that the source calls inconclusive (neither active nor inactive); the mix of calls is not that of the screen. Calls follow the shape of the dose curve; as a rule, active = well fitted inhibition curve with a large enough effect; inconclusive = small, poorly fitted or top-dose-only effect; inactive = no such curve, though single readings can be large or run the other way. Potencies of inconclusive entries are doubtful fits and often do not repeat.
The compounds below were run against Histone-lysine N-methyltransferase EHMT2 (Homo sapiens) (UniProt Q96KQ7) (assay: qHTS Assay for Inhibitors of Histone Lysine Methyltransferase G9a). Details: G9a H3K9 monomethylation, AlphaScreen, 2 h; activity, negative = inhibition: at 59 µM (top of the series) unless noted.
Procedure, shortened: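 AlphaScreen detection with an anti-monomethyl H3K9 antibody quantified product after a 2 h room-temperature reaction containing 500 nM biotinylated H3K9 peptide, 20 µM SAM and 20 nM enzyme, which had been preincubated 15 min with compound.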
% is scaled to controls: 0 for no effect and ±100 for the full control effect; potency is read from the fitted curve at half-maximal effect; tags tell the direction and shape of the fitted curve.
Also: nearly all actives have a fitted effect of over 75% in size.

Chain of UniProt Q96KQ7 (Q96KQ7 whole entry, looked up): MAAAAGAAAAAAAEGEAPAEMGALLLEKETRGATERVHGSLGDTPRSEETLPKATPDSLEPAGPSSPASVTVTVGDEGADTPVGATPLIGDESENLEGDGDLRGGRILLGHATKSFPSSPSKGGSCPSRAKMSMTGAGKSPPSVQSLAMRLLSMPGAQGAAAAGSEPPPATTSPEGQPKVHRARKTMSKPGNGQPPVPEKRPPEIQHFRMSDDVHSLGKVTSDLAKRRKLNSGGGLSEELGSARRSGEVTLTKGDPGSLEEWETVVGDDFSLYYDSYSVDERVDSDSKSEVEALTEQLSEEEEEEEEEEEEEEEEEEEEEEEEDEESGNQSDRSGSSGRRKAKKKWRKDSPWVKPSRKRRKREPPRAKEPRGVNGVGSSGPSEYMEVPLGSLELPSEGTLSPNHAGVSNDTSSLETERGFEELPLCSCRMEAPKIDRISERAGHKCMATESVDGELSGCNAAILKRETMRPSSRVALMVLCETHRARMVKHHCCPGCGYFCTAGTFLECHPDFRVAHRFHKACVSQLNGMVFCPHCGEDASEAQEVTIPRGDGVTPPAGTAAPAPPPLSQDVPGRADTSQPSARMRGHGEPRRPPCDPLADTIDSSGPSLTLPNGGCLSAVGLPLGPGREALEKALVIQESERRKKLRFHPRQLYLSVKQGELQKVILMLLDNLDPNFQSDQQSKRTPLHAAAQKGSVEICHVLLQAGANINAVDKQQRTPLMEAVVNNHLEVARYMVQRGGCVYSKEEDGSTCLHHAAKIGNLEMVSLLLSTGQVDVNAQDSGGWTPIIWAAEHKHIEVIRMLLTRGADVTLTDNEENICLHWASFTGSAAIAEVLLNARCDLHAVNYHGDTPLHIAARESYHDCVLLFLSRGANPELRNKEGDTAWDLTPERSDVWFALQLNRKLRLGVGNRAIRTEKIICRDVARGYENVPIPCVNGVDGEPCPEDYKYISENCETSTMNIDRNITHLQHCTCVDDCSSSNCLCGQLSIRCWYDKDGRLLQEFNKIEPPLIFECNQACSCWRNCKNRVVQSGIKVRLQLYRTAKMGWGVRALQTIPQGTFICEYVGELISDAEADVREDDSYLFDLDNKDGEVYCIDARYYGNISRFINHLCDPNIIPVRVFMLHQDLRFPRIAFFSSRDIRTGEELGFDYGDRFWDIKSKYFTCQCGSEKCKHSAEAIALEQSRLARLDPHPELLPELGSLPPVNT

Row | SMILES | Potency | activity, negative = inhibition
1 | Cc1ccc(S(=O)(=O)N2CCCc3cc(NS(=O)(=O)c4cccc(Cl)c4)ccc32)cc1 | inactive | –
2 | COc1ccccc1OCC(=O)N1CC2(C)CC1CC(C)(C)C2 (stereo unspecified) | inconclusive: 22.4 µM [inhibitor, partial curve, poor fit] | –
3 | COc1ccc(S(=O)(=O)NCCc2csc3nc(-c4cccc(C)c4)nn23)cc1F | inactive | –
4 | O=C(CCN1C(=O)/C(=C/C=C/c2ccccc2)SC1=S)Nc1ccccn1 | inconclusive: 39.8 µM [inhibitor, partial curve, poor fit] | –
5 | CCCCN1C(=O)c2[nH]nc(-c3ccccc3O)c2C1c1ccc(OCc2ccccc2)cc1 (stereo unspecified) | inactive | –
6 | COc1ccccc1NC(=O)c1[nH]c(C)c(C(C)=O)c1C | inconclusive: 6.31 µM [inhibitor, single point] | –
7 | O=C(c1cccc(F)c1)n1nnc2ccccc21 | – | inactive: -8.71% [at 12.7 µM]
8 | CCOC(=O)N1CCN(c2cc(NCCC(=O)O)c3c4c(onc24)-c2ccccc2C3=O)CC1 | inconclusive: 10 µM [inhibitor, partial curve, poor fit] | –
9 | N#Cc1nc(COc2ccc(Br)cc2)oc1N1CCCC1 | – | inconclusive: -63.5% [inhibitor]
10 | COc1ccccc1NC(=O)CCC(=O)N1CC(C)Oc2ccc(C)cc21 (stereo unspecified) | inconclusive: 22.4 µM [inhibitor, partial curve, poor fit] | –
11 | Cc1cccc(OCC(=O)Nc2cc(Cl)ccc2-n2cncn2)c1C | inconclusive: 89.1 µM [inhibitor, single point] | –
12 | c1ccc(-c2nc(NCc3cccs3)c3ccccc3n2)cc1 | inactive | –
13 | C[C@@H](C(=O)Nc1ccc2ccccc2c1)[C@H]1C[C@]1(C)[C@H](NC(=O)c1cnccn1)c1ccccc1 | inactive | –
14 | COc1cccc(-n2c(Cc3cc(=O)[nH]c(=O)[nH]3)nnc2SCC(=O)N2CCCCC2)c1 | inconclusive: 100 µM [inhibitor, single point] | –
15 | COc1nc(N(C)C)nc(N(C#N)S(=O)(=O)c2ccc(C)cc2)n1 | inconclusive: 79.4 µM [inhibitor, single point] | –
16 | COc1cc(CN2CCN(C(=O)c3cccc4ccccc34)CC2)cc(OC)c1OC | active: 20 µM | –
17 | CCN1CCC(N2CCN(c3ccc(F)cc3)CC2)CC1 | inconclusive: 79.4 µM [inhibitor, single point] | –
18 | CCN1CCc2c(sc(NC(=O)Cc3ccccc3)c2C(=O)OC)C1 | inconclusive: 79.4 µM [inhibitor, single point] | –
19 | CN1/C(=C\C=C(C#N)C#N)C(C)(C)c2ccccc21 | inactive | –
20 | COc1ccccc1CNC(=O)CN(C)c1nn2c(=O)cc(C)nc2s1 | inactive | –
21 | COCCn1nnnc1C(c1cccc(C(F)(F)F)c1)N1CCOCC1 (stereo unspecified) | inconclusive: 39.8 µM [inhibitor, single point] | –
22 | COc1ccc2cc(CN(Cc3ccco3)Cc3nnnn3C3CCCCC3)c(=O)[nH]c2c1 | inconclusive: 50.1 µM [inhibitor, partial curve, poor fit] | –
23 | O=C(CCCN1C(=O)c2cccc3cccc(c23)C1=O)N1CCN(c2ccccc2)CC1 | inconclusive: 35.5 µM [inhibitor, single point] | –
24 | O=C1Nc2ccccc2/C1=N\N=C\C1=C(N2CCOCC2)C(=C\c2ccccc2)/CC1 | inconclusive: 3.98 µM [inhibitor, single point] | –

Row | SMILES | Potency | activity, negative = inhibition
25 | COc1ccc(-c2cc(C(F)(F)F)c(C#N)c(SCC(=O)Nc3ccccc3F)n2)cc1 | inactive | –
26 | COc1cccc(C2/C(=C(/O)c3ccncc3)C(=O)C(=O)N2CCCN(C)C)c1 (stereo unspecified) | inactive | –
27 | CCC(C)Sc1c(C(C)C)cnc2c1c(=O)n(C)c(=O)n2C (stereo unspecified) | inconclusive: 31.6 µM [inhibitor, partial curve, poor fit] | –
28 | COc1ccc(C2C=C(c3ccccc3)Nc3nc(NC(=O)/C=C/c4ccc(F)cc4)nn32)cc1 (stereo unspecified) | inactive | –
29 | O=C(NC(=S)N1CCc2ccccc21)c1ccc(Br)o1 | – | inconclusive: -81.3% [inhibitor]
30 | COc1ccc2c(c1)c1c(c(=O)n(-c3ccccc3C)c(=O)n1CC(=O)N1CCCC1)n2C | inactive | –
31 | C/C(=N\NC(=O)Cc1ccc(Cl)c(Cl)c1)c1cccnc1 | inactive | –
32 | CN(C1CCCCC1)S(=O)(=O)c1cc2c(cc1Cl)NC(=O)CO2 | inactive | –
33 | CN1CCN(c2nc3ccccc3nc2C(C#N)C(=O)OC2CCCCC2)CC1 (stereo unspecified) | inconclusive: 56.2 µM [inhibitor, single point] | –
34 | CCOc1ccc(CNC(=O)C2CCN(S(=O)(=O)c3cn(C)cn3)CC2)cc1OC | inconclusive: 28.2 µM [inhibitor, single point] | –
35 | COc1ccc(NC(=S)Nc2ccccn2)c(OC)c1 | inconclusive: 8.91 µM [inhibitor, partial curve, poor fit] | –
36 | O=C(Nc1ccc(CN2CCOCC2)cc1)c1ccc(-c2ccc(Br)cc2)o1 | – | inconclusive: -73.8% [inhibitor]
37 | CS(=O)(=O)c1ccc2c(c1)SC1=NC(=O)/C(=C/c3ccco3)C(=N)N12 | active: 50.1 µM | –
38 | O=C(COC(=O)c1ccccc1NCCO)Nc1cc(C(F)(F)F)ccc1N1CCOCC1 | inconclusive: 89.1 µM [inhibitor, single point] | –
39 | CCOc1ccc(N2C(=O)CC(NCCc3c[nH]c4ccccc34)C2=O)cc1 (stereo unspecified) | inconclusive: 50.1 µM [inhibitor, partial curve, poor fit] | –
40 | COc1ccc(NCC(=O)N/N=C2\CCc3ccccc32)cc1 | inconclusive: 28.2 µM [inhibitor, full curve, poor fit] | –
41 | CCOC(=O)C1=C(C)NC(=O)NC1c1cc(Br)c(O)c(OC)c1 (stereo unspecified) | inconclusive: 3.55 µM [inhibitor, partial curve, poor fit] | –
42 | Cc1ccccc1C(=O)Nc1nnc(SCC(=O)NCc2ccco2)s1 | inconclusive: 25.1 µM [inhibitor, partial curve] | –
43 | CCOC(=O)CN(Cc1ccc(OC)c(OC)c1)S(=O)(=O)c1ccc(OC)cc1 | inactive | –
44 | Cc1ncc(CO)c(CNc2ccc(Oc3ccccc3)cc2)c1O | active: 70.8 µM | –
45 | c1ccc2nc3c(nc2c1)c1ccccc1n3CCN1CCOCC1 | – | inactive: -6.73% [at 12.7 µM]
46 | COC(=O)c1ccc(NC(c2ccc(Cl)cc2)P(=O)(OC)OC)cc1 (stereo unspecified) | inconclusive: 39.8 µM [inhibitor, single point] | –
47 | CN(C)C(=S)Nc1cccc(-c2n[nH]c(=S)o2)c1 | active: 22.4 µM | –
48 | O=C(Nc1ccc(Cl)cn1)c1cccc(S(=O)(=O)N2CCOCC2)c1 | inconclusive: 35.5 µM [inhibitor, partial curve, poor fit] | –

Row | SMILES | Potency | activity, negative = inhibition
49 | COc1ccccc1NC(=O)c1sc2ncn(Cc3ccccc3Cl)c(=O)c2c1C | inactive | –
50 | CCc1ccccc1NC(=O)c1sc(-n2nc(C)c(Cc3ccc4c(c3)OCO4)c2C)nc1C | inactive | –
51 | Cc1cc(C)n2c(SCC(=O)NCc3ccc4c(c3)OCO4)nnc2n1 | active: 11.2 µM | –
52 | COc1ccc(NC2CCCN(Cc3cccc4cnccc34)C2)cc1OC (stereo unspecified) | inconclusive: 79.4 µM [inhibitor, single point] | –
53 | CO[C@H]1/C=C/O[C@@]2(C)Oc3c(C)c(O)c4c(O)c(c5c(c4c3C2=O)NC2(CCN(CC(C)C)CC2)N=5)=NC(=O)/C(C)=C\C=C\[C@H](C)[C@H](O)[C@@H](C)[C@@H](O)[C@@H](C)[C@H](OC(C)=O)[C@@H]1C | inconclusive: 22.4 µM [inhibitor, single point] | –
54 | Cc1cccc(C(=O)Nc2ccc3oc(-c4ccncc4)nc3c2)c1 | inactive | –
55 | COc1ccc2c(c1)C=C(C(=O)NCc1cc(Br)ccc1OC)CO2 | inactive | –
56 | CN(Cc1nc(-c2cnccn2)no1)Cc1n[nH]c2c1CCCC2 | inconclusive: 0.316 µM [inhibitor, partial curve, poor fit] | –
57 | O=[N+]([O-])c1cccc(N/N=C/c2ccc(N3CCOCC3)cc2)c1 | active: 39.8 µM | –
58 | O=C(CCC1CCCC1)N1CCC(N2CCCCCC2)CC1 | inconclusive: 2.24 µM [inhibitor, full curve, poor fit] | –
59 | O=C(O)CSCCc1ccccn1 | inconclusive: 31.6 µM [inhibitor, single point] | –
60 | COc1ccc(-c2nc3scc(CCNC(=O)c4cc(OC)cc(OC)c4)n3n2)cc1 | inactive | –
61 | CN(C(=O)c1cccc(N2C(=O)C3CC=CCC3C2=O)c1)C1CCCCC1 (stereo unspecified) | active: 50.1 µM | –
62 | CCOc1ccc2nc(SCC(=O)N(CC(C)C)c3c(N)n(Cc4ccccc4)c(=O)[nH]c3=O)[nH]c2c1 | active: 50.1 µM | –
63 | O=C(NCC1CCCO1)c1cccc(N2CCCC2=O)c1 (stereo unspecified) | inconclusive: 0.355 µM [inhibitor, full curve] | –
64 | O=S(=O)(NCc1csc(-c2cccnc2)n1)c1cccs1 | inconclusive: 89.1 µM [inhibitor, partial curve, poor fit] | –
65 | CN1C(=O)c2ccccc2C(C(=O)NCc2ccco2)C1c1c[nH]c2ccccc12 (stereo unspecified) | inactive | –
66 | C/C(=C/c1ccccc1)C(=O)N1CCC(C)CC1 | inactive | –
67 | Cc1cc2ccccn2c1C(=S)NC(=O)c1ccccc1 | inconclusive: 31.6 µM [inhibitor, single point] | –
68 | CCCCC1(C)OC(=O)C(=Cc2ccc(SC)cc2)C(=O)O1 (stereo unspecified) | inactive | –
69 | O=C(COC(=O)c1cnccn1)c1ccc([N+](=O)[O-])cc1 | active: 25.1 µM | –
70 | COc1ccc(-n2c(-c3ccc(F)cc3)cnc2SCC(=O)NCc2ccco2)cc1 | – | inconclusive: -127% [inhibitor]
71 | Cn1ccnc1C1CCCCN1C(=O)c1cc(COc2ccc(F)cc2F)on1 (stereo unspecified) | inconclusive: 25.1 µM [inhibitor, partial curve, poor fit] | –
